# Measurements: PubChem BioAssay AID250 (DTP/NCI, 2004)
# Toxic doses and inconclusive results are not listed. Not every entry of the source has a single result; some have several. Only these are listed. An entry can have further records. Values that stand side by side do not match, cause unknown; dose, time, organism, isomer or construct need not be as stated for each record. Brackets tell where a record comes from. The letters are not those of the source and start again with each entry. Marks such as (2×) say how often a value occurs here.
# Tested on: BDF1 mice, L1210 leukemia sc, survival T/C
# Experiment: NCI In Vivo Anticancer Drug Screen. Data for tumor model L1210 Leukemia (subcutaneous) in B6D2F1 (BDF1) mice
# Conditions: endpoint: median survival time, higher = longer survival
# Procedure: The antitumor activity of compounds was measured in mice bearing transplantable tumors. Survival or tumor size were measured and the results are expressed as the measurement made in the treated group (T) divided by the measurement made in the vehicle treated control group (C). The tumor model used in this assay is L1210 Leukemia (subcutaneous) in B6D2F1 (BDF1) mice
structure (smiles),measurement,setting,value
CCCCCCCCCCCCCCCC(=O)OCC1OC(n2ccc(N)nc2=O)C(O)C1O (stereo not drawn),T/C,"dose: 300.0 mg/kg/injection, schedule: Q01DX001 (sc), vehicle: saline",110 % of control and 150 % of control
Nc1nc(=S)c2ncn(C3CC(O)C(CO)O3)c2[nH]1 (stereo not drawn),T/C,"dose: 75.0 mg/kg/injection, schedule: Q02DX005 (sc), vehicle: saline",161 % of control (2×) [sample A] and 103 % of control (2×) [sample B]
CC(CN1CC(=O)NC(=O)C1)N1CC(=O)NC(=O)C1 (stereo not drawn),T/C,"dose: 500.0 mg/kg/injection, schedule: Q04DX003 (sc), vehicle: Klucel (hydroxypropylcellulose) (HPC)","107 % of control, 111 % of control, 155 % of control"
O=NN(CCCl)C(=O)NCCCl,T/C,"dose: 1.8 mg/kg/injection, schedule: Q01DX Z (sc), vehicle: saline",110 % of control and 176 % of control
O=c1[nH]cc(F)c(=O)[nH]1,T/C,"dose: 14.0 mg/kg/injection, schedule: Q01DX Z (sc), vehicle: saline","100 % of control, 105 % of control, 175 % of control"
same,T/C,"dose: 23.0 mg/kg/injection, schedule: Q01DX Z (sc), vehicle: saline","115 % of control, 152 % of control, 170 % of control"
same,T/C,"dose: 64.8 mg/kg/injection, schedule: Q01DX Z (sc), vehicle: saline",87 % of control and 150 % of control
C[C@H](CN1CC(=O)NC(=O)C1)N1CC(=O)NC(=O)C1,T/C,"dose: 64.0 mg/kg/injection, schedule: Q01DX009 (ip), vehicle: water",124 % of control and 164 % of control
